# The full ranking holds about 33,000 sequences; the median of “E-score (-0.5 to 0.5)” is about -0.04, and the highest 2% start at about 0.36. This is one part of the list.
# Target: T1, Hmlalpha2 (UniProt P0CY09)
# T1 sequence: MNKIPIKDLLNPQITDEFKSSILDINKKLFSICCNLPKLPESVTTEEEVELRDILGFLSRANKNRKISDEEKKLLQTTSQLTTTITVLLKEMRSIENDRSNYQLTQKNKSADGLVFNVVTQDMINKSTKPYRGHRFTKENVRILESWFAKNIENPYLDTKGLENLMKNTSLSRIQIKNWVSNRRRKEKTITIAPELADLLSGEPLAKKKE
# Experiment: PBM E-score (8-mer binding enrichment) (E-score (-0.5 to 0.5)); higher = stronger / more preferred TF binding; most listed sequences are background and not binding sites
# Details: protein concentration: 200 nM; construct: GST-full length
# Summary of the method: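 PURExpress in vitro transcription/translation supplied GST-tagged yeast transcription factors, either full-length or DNA-binding domain. Applied at about 100-200 nM to universal all-10-mer Agilent arrays double-stranded by primer extension, the bound protein was detected with fluorescent anti-GST. E-scores, modified Wilcoxon-Mann-Whitney statistics, were given by the Universal PBM Analysis Suite to ungapped eight-base words pooled with their reverse complements after masliner normalisation.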
row,Sequence,PBM E-score
1,ACAAGTAG,0.0754
2,AGATAAGC,-0.0228
3,CGTAAGTA,0.175
4,CCCAAAGG,-0.177
5,CTCACATC,-0.0809
6,AGTAAGCC,-0.078
7,CCAATTCG,0.0567
8,AAGGTCTG,0.0312
9,ATTTCGCA,0.102
10,GGCTTCAA,-0.0392
11,CCGTAGTA,-0.123
12,ATACTGAT,0.126
13,GCTGAACA,0.0644
14,CCTCGAAG,-0.129
15,ATAAAGTC,-0.0207
16,AGGTTATA,0.0651
17,GGGAGTGA,-0.0545
18,AGAAGGCT,-0.337
19,TACGGTAA,0.118
20,CAGCGCTA,0.0425
21,CCTGACCC,-0.228
22,CTAACCAA,0.202
23,CAGCCGGC,-0.258
24,CAGGGTAC,0.0141
25,AACCCGAT,0.0593

row,Sequence,PBM E-score
1,GCGCGCGC,0.164
2,GGCCCTAC,-0.351
3,GACCCCTC,-0.308
4,GACCACAC,0.0249
5,CCTGAAAG,-0.0265
6,AGGCAACG,-0.0748
7,GATTGGTA,0.00817
8,CCTTCTCA,-0.313
9,CTTTGTGA,0.00029
10,CGGAAGTC,-0.243
11,AGCTTTGA,0.0034
12,AAAGAGTA,0.0826
13,ACCCGGCC,-0.25
14,AATATATT,0.308
15,CTTGAACC,0.0262
16,TCACAGAA,0.0165
17,GACAGCCA,-0.131
18,ACAATATG,0.183
19,CCATAAAA,-0.00897
20,ACATCACC,0.103
21,AACGCCTG,0.0666
22,CACTTACG,0.134
23,GCCAGTGA,-0.215
24,CGCTGAAC,0.0561
25,AACGACGC,0.184

row,Sequence,PBM E-score
1,ACTCTCCA,-0.166
2,ATCCCTTC,-0.192
3,CGCCCAAA,0.065
4,CAACCCGC,-0.0126
5,AATTCTTG,0.12
6,AGTCGCAC,-0.178
7,AGTGAGTG,-0.0617
8,CGATTCCC,-0.0709
9,AGCCGCCC,-0.109
10,CTATACTC,-0.145
11,CTCGCGGC,-0.167
12,CGTGTAGC,0.344
13,CCGAACAG,-0.14
14,ACTCTAAC,0.0745
15,GATGAATC,-0.0427
16,ACAAAATA,0.158
17,ATTGTAGC,0.0451
18,CATATCAC,0.131
19,AGGTATCA,-0.112
20,ATCTATCC,-0.202
21,CCCACTCA,-0.134
22,CATCGTAG,-0.069
23,CCTAGTTA,0.0614
24,ACGCTTAC,0.0906
25,GGACCAAA,-0.0464

row,Sequence,PBM E-score
1,GGCCATAC,-0.138
2,ACGAGTCC,-0.0991
3,ACTAAGAA,0.0526
4,AGGAACAA,-0.0757
5,TACATTGA,0.35
6,AGTTCGGC,-0.0823
7,TATGAGGA,-0.0382
8,TATCCCAA,0.0522
9,ACGTTACG,0.264
10,AGACTTAG,-0.152
11,GTAACCCA,0.214
12,ACGACACG,0.353
13,TCCCGAGA,-0.229
14,GCACAAGA,-0.0559
15,AGCTTTCG,-0.139
16,CAAGGTCC,-0.193
17,ACCAACGA,-0.0432
18,GTCACCAC,-0.0983
19,CTTTGGAC,-0.0148
20,CAAGCCTA,0.0737
21,ATTCTCGG,-0.0411
22,CCAGGGTA,-0.192
23,CACTAGCG,-0.0565
24,GCGGGCTA,-0.197
25,CCGTACTA,-0.127

row,Sequence,PBM E-score
1,ACGAGCAT,0.02
2,AAACCCCG,0.0184
3,GATTACTA,0.213
4,TCGACGCA,0.0175
5,CATTAAGC,-0.0386
6,CTGTCATC,-0.158
7,GTATATAC,0.155
8,AAACTCCG,-0.0306
9,ACCTTTAA,0.0867
10,AAATGAGG,-0.104
11,GCCTCGCC,-0.213
12,ATGTCGAC,0.27
13,AATGTGAT,0.196
14,GTCATGAA,-0.00218
15,AAGATCGA,-0.076
16,CTCGTCCA,-0.0515
17,AGGGTGTA,0.186
18,ACGGTCGC,-0.157
19,GATTCACC,-0.147
20,GTCGACCA,-0.0364
21,AGCGCACC,-0.244
22,AGGCTACT,-0.204
23,AAAGGACC,-0.247
24,CTCTGAGC,-0.0568
25,CTACTGGC,-0.355

row,Sequence,PBM E-score
1,CTGGCCCC,-0.254
2,AACACTCG,0.0192
3,GGTCCACA,-0.072
4,ATGACCAA,0.0477
5,CTCCAGCA,-0.338
6,AATAGCGC,0.0666
7,GCCCCTAC,-0.234
8,AGTTAAAA,0.282
9,GGATAGCC,-0.247
10,ACAAGGTA,0.291
11,CCGAACAC,0.121
12,AAGTATGA,0.0611
13,CGGGAACC,-0.205
14,AAGTGTTC,0.0292
15,GTAGTCAA,0.131
16,AAGAGAAT,-0.02
17,ATTGCTAC,0.0786
18,GTGTAACA,0.411
19,TCGTAAGA,-0.0353
20,GACTTGGA,-0.228
21,CGACGAAA,0.097
22,AATTCCAT,0.0359
23,CGGTCTGC,-0.133
24,ATTGTCCC,-0.103
25,GATAACCC,-0.124

row,Sequence,PBM E-score
1,ACCCGGTG,-0.111
2,ACGATGAA,0.174
3,CAAATGGC,-0.0309
4,ACGGTGGC,-0.235
5,AAAGAAGA,-0.057
6,CGTTGGAC,0.00625
7,CCGGTATC,-0.219
8,AACGCAGG,0.0539
9,ACCGTAGA,0.0129
10,GTACTTCA,0.248
11,CTATCGAA,0.00957
12,ACGCGGAA,0.209
13,AACCACCG,-0.211
14,CATCATCA,0.0483
15,GACATTTA,0.191
16,AGCACTCA,-0.16
17,CGTACACG,0.354
18,AAGGGCGG,-0.169
19,ACGACACC,-0.157
20,CATCTCAG,-0.12
21,CATGCAAA,0.306
22,CAGCTGCG,-0.141

# Source: the supplement of paper PMC3334620
